In PubChem BioAssay (NCATS):
Inconclusive results are not listed. The call rests on the fitted dose curve. For part of its entries the source gives two or more results. They are shown here; other results are not. There may be further records. The values listed for one entry repeat one measurement (runs, samples, wells, individuals or studies). Counts like (3×) count equal records among those shown.

Molecular target: Cytochrome P450 1A2 (Homo sapiens) (UniProt P05177)
Assay: p450-cyp1a2 (AID 410)
Conditions: recombinant CYP1A2, luciferin-ME demethylation, luminescence
How it was run: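 Luminescent readout of luciferin formed from Luciferin-ME by human CYP1A2; data normalized against complete inhibition by 57 uM furafylline. Enzyme 20nM, substrate 100uM at Km, 100mM KPO4 buffer, 60 min reaction at room temperature.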
Potency means the concentration at half of the fitted maximal effect.

Chain of UniProt P05177 (P05177 whole entry, looked up): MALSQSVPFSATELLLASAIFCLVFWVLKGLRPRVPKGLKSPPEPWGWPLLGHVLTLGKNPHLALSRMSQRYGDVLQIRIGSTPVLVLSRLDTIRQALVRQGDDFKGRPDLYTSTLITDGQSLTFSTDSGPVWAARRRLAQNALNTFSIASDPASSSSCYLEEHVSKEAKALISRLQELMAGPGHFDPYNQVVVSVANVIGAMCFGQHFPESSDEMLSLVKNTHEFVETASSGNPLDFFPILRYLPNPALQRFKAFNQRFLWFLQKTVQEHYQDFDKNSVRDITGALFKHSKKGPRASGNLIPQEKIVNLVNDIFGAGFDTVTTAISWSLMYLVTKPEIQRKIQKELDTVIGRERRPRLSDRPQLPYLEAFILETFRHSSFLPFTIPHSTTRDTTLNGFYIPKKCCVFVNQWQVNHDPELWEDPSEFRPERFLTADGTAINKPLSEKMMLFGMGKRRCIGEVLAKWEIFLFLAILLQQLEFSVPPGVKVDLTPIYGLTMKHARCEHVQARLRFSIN

CC(C)NC[C@@H](O)COc1cccc2ccccc12
Potency: active: 1.58 µM, 1.26 µM, 251 nM, 631 nM, 200 nM (2×), 158 nM [separate samples]
